Assay results: PubChem BioAssay AID1963576 (National Center for Advancing Translational Sciences (NCATS), 2024)
The campaign covered roughly 46,000 compounds. About 60 (0.1%) were called active. Inconclusive results (about 3%) are left out. Calls follow the shape of the dose curve; as a rule, active = well fitted inhibition curve with a large enough effect; inconclusive = small, poorly fitted or top-dose-only effect; inactive = no such curve, though single readings can be large or run the other way. The list shows a part of the results.

assay: Primary qHTS assay for Inhibitors of ovarian cancer metastasis using an organotypic tumor microenvironment (TME) model.; also: nearly all actives have a fitted effect of over 65% in size;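 as to activity change, negative = inhibition: plate controls were DMSO wells for no effect and tomatine positive control wells for full effect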; conditions: SKOV3ip1-GFP adhesion/invasion on 3D omental model, fluorescence; series mostly up to 45.8 µM; activity change, negative = inhibition: at the top concentration
Procedure, shortened: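 Primary human omental fibroblast/mesothelial 3D culture pre-formed 48 h. SKOV3ip1-GFP cells added with compounds (0.36-46 umol/L), incubated 2 h RT/16 h 37 C, fixed; GFP cells quantified at 488/509 nm.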

Activity change, negative = inhibition, inactive:
Cc1ccc2nc3c(cc(C#N)c(=O)n3-c3nnc(SCc4ccc(F)cc4)s3)c(=O)n2c1 -1.59%
CCCCOc1cccc(C(=O)Nc2sc3c(c2C(=O)OCC)CCCC3)c1 0.841%
CCOc1ccc(-n2c(SCc3ccccc3)nc3c([nH]c4ccccc43)c2=O)cc1 38.1%
CCOc1ccc(CNC(=O)c2ccc3c(c2)c(C)c(C)n3C)cc1 -9.99%
COc1cccc(CNC(=O)N2CCc3c(sc4c3CCCC4)C2c2ccc(F)cc2)c1 (stereo not given) -14.4%
Cc1nc2ncnn2c(C)c1CCC(=O)N1CCN(c2ccc(F)cc2)CC1 -8.56%
CC(C)c1ccc2c(c1)NC(c1ccc(F)cc1)=NC(c1cccs1)=N2 0.287%
Fc1ccc(-c2noc3ncnc(NCCc4ccc(Cl)cc4)c23)cc1 -2.18%
COc1cccc(N2CC(NC(=O)c3cc4ccccc4o3)CC2=O)c1 (stereo not given) 9.71%
CCn1c2c(c(=O)n3ncc(C(=O)N4CCN(c5ccccc5)CC4)c13)CN(Cc1ccc(OC)cc1)CC2 4.52%
COc1ccc(OC)c(C2C(C(=O)Nc3ccc(C)cc3C)=C(C)Nc3c(C(=O)Nc4ccc(F)cc4)cnn32)c1 (stereo not given) -4.09%
CC(C)c1noc(-c2ccccc2OCC(=O)Nc2ccc([N+](=O)[O-])cc2)n1 -0.75%
O=C(CSc1nnc(-c2ccncc2)n1-c1ccccc1)Nc1ccc(F)cc1 32.8%
CCOC(=O)CCc1c(C)nc2c(-c3ccccc3)c(C)[nH]n2c1=O 8.12%
COc1ccc(Cl)cc1NC(=O)CSc1nc(=O)n(Cc2ccco2)c2c1CCC2 -19.2%
CS(=O)(=O)N1CCN(Cc2cc3nc(-c4cccc5[nH]ncc45)nc(N4CCOCC4)c3s2)CC1 -14.1%
Cc1ccc(OCC(=O)Nc2nnc(S(=O)(=O)N3CCc4ccccc43)s2)cc1 5.61%
Cc1ccc(-n2ncc3c(Nc4ccc(Oc5ccccc5)cc4)ncnc32)c(C)c1 -9.51%
COc1ccc(OC)c(-c2noc(CSc3nnc(-c4ccccc4)n3-c3ccccc3)n2)c1 -16.2%
CC(C)NCC(O)c1ccc(O)c(O)c1 (stereo not given) -16.1%
CC(C)(C)c1ccc(C(=O)NCC(c2ccco2)S(=O)(=O)c2ccc(F)cc2)cc1 (stereo not given) -6.64%
CCOC(=O)c1ccc(NC(=O)CSc2nnc3c4ccccc4n(CC)c3n2)cc1 2.71%
COc1ccc(-n2cnc3cc(C(=O)NC4CCCC4)ccc32)cc1 -4.79%
COc1ccc(Cn2c(C(=O)O)c(CNCc3ccco3)c3ccc(OC)cc32)cc1 -5.05%
O=C(CSc1c2c(nc3ccccc13)CCC2)Nc1ccc(F)cc1 -7.76%
COCCCNC(=O)CCCn1c(SCC(=O)c2ccc(F)cc2)nc2c(sc3ccccc32)c1=O 0.184%
CCCCN(CCCC)CCC(O)c1cc2c(Cl)cc(Cl)cc2c2cc(C(F)(F)F)ccc12 (stereo not given) 9.59%
COC(=O)c1ccccc1NC(=O)c1cnc(Nc2ccc(OC)cc2)c2ccccc12 33.2%
Cc1cccc(N2CCN(Cc3nnc(-c4ccccc4C)o3)CC2C)c1 (stereo not given) 0.0792%
Cc1ccc(Cn2c(CNC(=O)CCc3ccccc3)nc3cccnc32)cc1 -4.19%
CCCOc1ccc(C(=O)N(Cc2ccccc2Cl)C2CCS(=O)(=O)C2)cc1 (stereo not given) -6.97%
COc1ccc(C2=Nc3ccc(F)cc3NC(c3cccc(C(F)(F)F)c3)=N2)cc1 4.78%
COc1cc2nc(-c3ccc(N4CCN(C)CC4)cc3)nc(NCCN3CCOCC3)c2cc1OC 1%
CCCCOc1cccc(C(=O)N(Cc2ccc(N(C)C)cc2)C2CCS(=O)(=O)C2)c1 (stereo not given) -4.52%
COc1ccc(CCNC(=O)Cn2c(=O)n(-c3ccccc3)c(=O)c3c(C)c(C)sc32)cc1OC -6.01%
O=C(COc1ccc(F)cc1)NCC(c1ccc(Cl)cc1)N1CCCCC1 (stereo not given) -22.5%
Cc1ccc(CCNC(=O)CCCn2c(=O)c3ccccc3n(Cc3ccccc3C)c2=O)cc1 -23.2%
O=C(NC1CCCc2ccccc21)c1ccc2c(c1)sc1nc(-c3ccccc3)cn12 (stereo not given) 0.525%
O=C(Nc1ccc2c(c1)CCCN2C(=O)c1cccs1)c1ccccc1 -6.77%
CC(C)C1N=C2c3ccccc3N=C(SCC(=O)NCc3ccc(Cl)cc3)N2C1=O (stereo not given) -2.37%
CC(=O)N1CCOc2cc(S(=O)(=O)NCc3ccc(F)cc3)c(C)cc21 4.37%
CCCS(=O)(=O)c1nc(S(=O)(=O)c2ccc(C)cc2)c(NCc2ccccc2Cl)s1 21.7%
Cc1nc(N2CCCC2)c2c(C(=O)Nc3cccc(Cl)c3)c(C)oc2n1 -9.51%
Cc1cc(C)cc(NC(=O)Nc2ccc3nc(N4CCN(C)CC4)cc(C)c3c2)c1 4.48%
COc1cc(F)c(F)c(Nc2ccc(I)cc2F)c1NS(=O)(=O)C1(C[C@H](O)CO)CC1 -7.21%
CCOc1ccc(NC(=O)Cn2ccn3nc(-c4ccc(OC)c(OC)c4)cc3c2=O)cc1 -2.87%
CC(CNC(=O)CCc1cn(Cc2ccccc2Cl)c2ccccc12)c1ccccc1 (stereo not given) -5.39%
CCOc1ccccc1NC(=O)C1CCN(S(=O)(=O)c2cccs2)CC1 -7.9%
Cc1c(C(=O)NCc2cccc(Cl)c2)sc2nc[nH]c(=O)c12 6.03%
COc1cccc(Oc2nc(C)nc3c2oc2ccccc23)c1 -10.6%
Cc1ccsc1CN(C(=O)c1ccc(OCC(C)C)cc1)C1CCS(=O)(=O)C1 (stereo not given) -3.37%
CCc1ccc(NC(=O)c2ccc(F)c(S(=O)(=O)N3CCN(c4ccc(OC)cc4)CC3)c2)cc1 -4.36%
COc1ccc(NC(=O)Cn2cc(C(=O)c3ccccc3)c(=O)c3cc(OC)ccc32)c(OC)c1 12.6%
O=C(O)CCC(=O)Nc1sc2c(c1C(=O)Nc1ccccc1)CCCCC2 -6.42%
CC1(C)CC(=O)c2cc(C#N)c(=O)n(-c3ccc(Cl)cc3)c2C1 25.1%
CCOC(=O)c1c(S(=O)(=O)N2CCCC(C(=O)Nc3ccc(C)cn3)C2)c(C)n(C)c1C (stereo not given) -5.93%
Cc1ccc(Sc2c(C)nn(C(=O)c3ccc(Cl)cc3)c2C)cc1 -15.4%
Cc1c(C(=O)OC(C)C)sc(NC(=O)C2c3ccccc3Oc3ccccc32)c1C(=O)OC(C)C -0.347%
CCc1cnc2c(c1SCC(=O)c1ccc(Cl)cc1)c(=O)n(C)c(=O)n2C 4.45%
COc1ccc(Cn2c(=O)c3cccnc3n(CC(=O)Nc3c(C)cc(C)cc3C)c2=O)cc1 0.677%
CCSc1nnc(NC(=O)c2cc(=O)c3cc(C)c(C)cc3o2)s1 7.45%
CCOc1ccc(CNS(=O)(=O)c2cc3c(cc2C)NC(=O)CO3)cc1 0.292%
Cc1cccc(NC(=O)CSc2nc3ccccc3nc2N2CCOCC2)c1C 1.25%
COc1cc(OC)cc(C(=O)N2CC(=O)Nc3ccc(Cl)cc3C2c2ccccc2)c1 (stereo not given) -3.01%
CC(C)CCNC(=O)CCC(=O)NNc1nc2ccccc2c2nc(-c3ccccc3)nn12 14.2%
O=C(Nc1nnc2n1CCS2)c1ccccc1C(F)(F)F -8.36%
COc1cccc(C(=O)NCC(c2ccc3c(c2)OCO3)N2CCOCC2)c1 (stereo not given) -2.48%
CCOc1ccc(NC(=O)C(=O)NCc2ccco2)cc1 -5.7%

outcome, inactive:
CCCN(CCC)C(=O)Cn1c(=O)n(-c2ccc(OC)cc2OC)c(=O)c2c3c(sc21)CCC3
COc1ccc(CCNC(=O)CCCCn2c(=O)c3ccccc3n(Cc3cc(C)ccc3C)c2=O)cc1OC
Cc1ccc(Sc2ccc(N3CCCC(C(=O)Nc4ccc(F)c(Cl)c4)C3)nn2)cc1 (stereo not given)
CCOc1ccccc1NC(=O)Cn1c(=O)n(CC(=O)NCc2ccccc2Cl)c(=O)c2sccc21
Cc1cccc(C(=O)NCCc2nc3ccccc3n2Cc2ccccc2Cl)c1
COc1ccc(Nc2cc(C)c3cc(NC(=O)c4ccccc4Cl)ccc3n2)cc1
Cc1ccc(NC(=O)Nc2nnc(SCC(=O)N3CCCCC3)s2)cc1
COc1ccc(N2CCN(S(=O)(=O)c3ccc(C4CCCCC4)cc3)CC2)cc1
CCOC(=O)c1ccccc1NC(=O)c1cn(CC(C)C)c(=O)c2cc(OC)c(OC)cc12
CN(C)c1ccc(CNC(=O)c2ccc(Cn3c(=O)c4cccn4c4cccnc43)cc2)cc1
COc1ccc(CNC(=O)CSc2ncc3c(n2)-c2ccc(Cl)cc2N(Cc2ccc(F)cc2)S3(=O)=O)cc1OC
CCOc1cc(Br)cc(C2NC(=O)c3c(sc4c3CCN(C)C4)N2)c1O (stereo not given)
CCc1ccc2ncc(C(=O)c3ccc(C)c(C)c3)c(N3CCC(C(N)=O)CC3)c2c1
Cc1cc(-c2nc3ncccc3o2)ccc1NC(=O)c1ccccc1Br
O=C(Cn1cnc(S(=O)(=O)N2CCCC2)c1)Nc1cccc(Br)c1
CC(=O)N1c2ccc(S(=O)(=O)N3CCCCCC3)cc2CC1C(=O)NCc1ccccc1C (stereo not given)
O=C(Cn1c(=O)n(Cc2ccccc2)c(=O)c2sc3ccccc3c21)Nc1ccccc1F
COc1ccccc1CNC(=O)CCCN1C(=O)CSc2c1c(C)nn2-c1ccccc1
COc1ccc(-n2nc(C(=O)N3CCN(c4ccccc4OC)CC3)c3c4ccccc4n(C)c3c2=O)cc1Cl
Cc1ccc(-n2c3nc(=O)[nH]c(=O)c-3cc3c(C)nn(-c4ccccc4)c32)cc1C
CCOC(=O)c1cccc(NS(=O)(=O)c2cc(-c3cnc(C4CC4)o3)ccc2C)c1
Cc1ccc2oc(-c3cccc(NC(=O)Cc4ccc(Cl)cc4)c3)nc2c1
CCOC(=O)c1c(-c2ccc(OC)cc2)oc2ccc(OCc3ccc(Br)cc3)cc12
CC(=O)c1ccc(N2CCN(C(=O)CCCCn3c(=O)[nH]c4ccsc4c3=O)CC2)cc1
Cc1ccc(N(CC(=O)Nc2ccc(Br)cc2)S(=O)(=O)c2cccs2)cc1
COc1ccc(S(=O)(=O)n2nc(C)c(S(=O)(=O)N3CCC(C)CC3)c2C)cc1OC
O=C(NCCc1ccc(F)cc1)C(=O)NCC(c1ccco1)S(=O)(=O)c1cccs1 (stereo not given)
